About 9,900 (2.8%) of roughly 350,000 compounds were called active. This list was built around the results that the source calls inconclusive (neither active nor inactive); the mix of calls is not that of the screen. Calls come from the whole dose curve; as a rule, active = well fitted activation curve with a large enough effect; inconclusive = small, poorly fitted or top-dose-only effect; inactive = no such curve, though single readings can be large or run the other way. No potency is given beside an inconclusive call; the fits are too rough.
Test: A quantitative high throughput screen for small molecules that induce DNA re-replication in MCF 10a normal breast cells. Note: nearly all actives have a fitted effect of over 50% in size.
Details: MCF 10A DNA re-replication, Hoechst nuclear intensity, 48 h; series mostly up to 46.1 µM
Potency is the fitted concentration of half-maximal effect; tags give direction and shape of the fitted curve.

SMILES | Potency
Cn1cnc([N+](=O)[O-])c1S(=O)(=O)Oc1ccccc1 | active: 7.31 µM
CN1N=C2c3ccccc3CCCC2C1c1ccc(F)cc1 (configuration not stated) | inconclusive [activator, single point]
COc1ccc(CCNC(=O)c2cc3c(=O)n4ccccc4nc3n(CC3CCCO3)c2=N)cc1 (configuration not stated) | inconclusive [activator, single point]
O=C(NCc1ccccc1)NC1(C(=O)N2CCN(c3ncccn3)CC2)CCCCC1 | active: 23.1 µM
CN(Cc1cn(C)nc1-c1ccc(Oc2ccccc2)cc1)Cc1cnc2ccccn12 | active: 23.1 µM
COc1ccc2cc3cc(C(=O)NCCCN4CCOCC4)oc3nc2c1 | inactive
CCN(CC)S(=O)(=O)c1ccc(C(=O)Nc2ccc(Cc3ccncc3)cc2)cc1 | inconclusive [activator, single point]
O=C(CCCN1C(=O)c2cccc3cccc(c23)C1=O)N1CCN(c2ccc(F)cc2)CC1 | inactive
CCNC(=S)Nc1ccc(OCc2nc3ccccc3s2)cc1 | inactive
Cc1ccc(Cn2c(=N)c(S(=O)(=O)c3ccc(C)cc3)cc3c(=O)n4ccccc4nc32)cc1 | active: 5.8 µM
Cc1ccc(N2CC(C(=O)Nc3cccc(F)c3)CC2=O)cc1 (configuration not stated) | inconclusive [activator, partial curve]
COc1ccccc1NC(=O)CCSc1nc(C)cs1 | inactive
CCOC(=O)C1=C(C)N=c2s/c(=C\c3ccncc3)c(=O)n2C1c1ccc2c(c1)OCO2 (configuration not stated) | inconclusive [activator, single point]
O=[N+]([O-])c1cc(Cl)c2cccnc2c1O | active: 2.59 µM
CCCC(=O)Nc1c2c(nn1-c1cccc(C)c1C)CS(=O)(=O)C2 | inconclusive [activator, full curve, poor fit]
Clc1ccc(-c2ccn[nH]2)cc1 | inactive
CCCn1cnc2c(SCCc3ccccc3)nc(N)nc21 | inconclusive [activator, partial curve, poor fit]
CCn1nc(C)c(/C=N/NC(=O)CSc2ccccn2)c1C | inconclusive [activator, single point]
COc1ccc2c(c1)c(C(O)CN1CCN(Cc3ccc4c(c3)OCO4)CC1)c(C)n2C (configuration not stated) | inactive
CCOC(=O)C1CCCN(C(=O)C2CCN(S(=O)(=O)c3c(C)noc3/C=C/c3ccccc3F)CC2)C1 (configuration not stated) | inconclusive [activator, single point]
COc1ccc(-c2cn(CCO)c(-c3ccncc3)n2)cc1 | inactive
CCOC(=O)C1CCCN(C(=O)c2cc3cc4ccc(OC)cc4nc3o2)C1 (configuration not stated) | inactive
Clc1ccccc1-c1nc(-c2cccnc2)no1 | inconclusive [activator, single point]
CCOC(=O)c1ccc(S(=O)(=O)N2CCN(C(=O)c3nn(C)c(=O)c4ccccc34)CC2)cc1 | inactive

SMILES | Potency
COc1ccc(-c2noc(CCC(=O)NCC3CCN(Cc4cccc(C)c4)CC3)n2)cc1 | inactive
CC(=O)OCC1O[C@@H](O[C@@H]2C[C@H]3C(C)(C)[C@H](OC(C)=O)CC[C@]3(C)[C@H]3CC[C@]45C[C@]4(CC[C@H]5[C@@H](C)C[C@@H](O)[C@H](O)C(C)(C)O)[C@@]32C)[C@H](O)[C@@H](O)[C@@H]1O (some centres not stated) | active: 7.31 µM
CCCCCCCCCCCCC/C=C/[C@@H](O)[C@@H](N)CO | inconclusive [activator, partial curve, poor fit]
Cc1cccc(-c2nsc(SCC(=O)Nc3nccs3)n2)c1 | inactive
CCOC(=O)c1c(C)oc2c(F)c(F)c(F)c(F)c2c1=O | active: 6.51 µM
COc1cc(NC(=O)Nn2cnnc2)cc(OC)c1OC | inactive
O=C(Nc1ccc(S(=O)(=O)Nc2ccc(F)cc2)cc1)c1ccc(CN2CCOCC2)cc1 | inconclusive [activator, partial curve, poor fit]
COc1ccccc1N1CCN(CC(O)COc2ccc(C)cc2C)CC1 (configuration not stated) | inconclusive [activator, single point]
CN(C)S(=O)(=O)c1ccc(Cl)c(C(=O)NC2CCN(Cc3ccccc3)C2)c1 (configuration not stated) | inactive
Cc1ccc(-c2nc3cnccn3c2Nc2c(C)cccc2C)o1 | active: 20.6 µM
CCCCCC(=O)N1CCCC(c2nc(-c3ccc(OC)cc3)no2)C1 (configuration not stated) | inconclusive [activator, partial curve, poor fit]
CC(C)CCn1c(COc2ccccc2)nn(CCC#N)c1=S | inconclusive [activator, partial curve, poor fit]
COc1ccccc1Oc1ccc(N/C=C/C(=O)c2ccc(C)o2)cc1 | inconclusive [activator, partial curve, poor fit]
Cc1c(Cc2ccccc2)sc(NC(=O)/C=C/c2cccc3ccccc23)c1C(N)=O | active: 2.31 µM
CC(C)c1ccc(N=C(N)N=C(N)N)cc1 | inactive
CCOc1ccc(N(CC(=O)NCCSCc2ccco2)S(=O)(=O)c2ccc(F)cc2)cc1 | inactive
O=C(COC(=O)CCNS(=O)(=O)c1ccccc1)NC(=O)c1ccccc1 | inactive
O=C(C1=C[C@@H]2[C@H]3C(=O)N(c4cccc(Cl)c4)C(=O)[C@H]3[C@@H](C(=O)c3ccc(Cl)cc3)N2C=C1)c1ccccc1 | inconclusive [activator, single point]
COc1cc(/C=C/C(=O)O)cc(S(=O)(=O)NCCCC(=O)O)c1OC | inconclusive [activator, single point]
CCn1c2ccccc2c2cc(NC(=O)N3CCOCC3)ccc21 | inconclusive [activator, partial curve, poor fit]
N#C/C(=C\c1ccc(O)c(Br)c1)C(=O)NCc1ccccc1 | active: 20.6 µM
CCCCn1c(CCC(=O)O)nc2c1c(=O)[nH]c(=O)n2CCC | inactive
Cc1ccc(OCc2cc(C(=O)NCC3COCCO3)no2)cc1C (configuration not stated) | inconclusive [activator, single point]
N#CC(C#N)=C(N)/C(C#N)=C/c1cc(O)c(O)c(O)c1 | inactive

SMILES | Potency
Cc1ccc(S(=O)(=O)Nc2ccc(NC(=O)c3cccnc3)cc2)cc1 | inactive
Cc1cccc(OCCSc2nc(N)cc(N)n2)c1 | inconclusive [activator, single point]
CCOC(=O)C1Nc2ccccc2C2c3ccccc3CC12 (configuration not stated) | inconclusive [activator, partial curve, poor fit]
COc1ccc(N2CCN(C(=O)COC(=O)CNC(=O)c3ccccc3)CC2)cc1 | inactive
CC(C)(C)c1cc(CP(=O)(c2ccccc2)c2ccccc2)cc(C(C)(C)C)c1O | inconclusive [activator, single point]
O=C(CCNC(=O)c1ccccc1Cl)Nc1cccc(S(=O)(=O)N2CCCCC2)c1 | inactive
Nc1c(Cl)cc(C2=NCCn3nc4cc(C(F)(F)F)ccc4c32)cc1Cl | inconclusive [activator, single point]
CCCCc1nc2cc(C(=O)N3CCCCC3CCNC(C)=O)ccc2o1 (configuration not stated) | inconclusive [activator, single point]
Cc1cccc(Oc2c(C=O)c3ccccc3n2C)c1 | inconclusive [activator, single point]
COc1cc(/C=N/Nc2ccc(F)cc2F)cc(OC)c1O | active: 16.4 µM
FC(F)OC(Cl)C(F)(F)F (configuration not stated) | inactive
CCCN(Cc1ccccc1)C(=S)Nc1ccc(C(C)=O)cc1 | inconclusive [activator, partial curve, poor fit]
CCN(CC)S(=O)(=O)c1ccc(OC)c(NC(=O)c2cccc(C)c2[N+](=O)[O-])c1 | inactive
O=C(CSc1nc(-c2ccco2)cc(C(F)(F)F)n1)NCc1cccs1 | inconclusive [activator, partial curve, poor fit]
CC(=O)Nc1ccc(NC(=O)c2ccc(-n3c(C)ccc3C)cc2)cc1 | inconclusive [activator, single point]
CCCN1CCN(c2ncnc3c2nnn3Cc2ccccc2)CC1 | inconclusive [activator, single point]
CC(C)C(c1nnnn1Cc1ccco1)N1CCN(c2nc3ccccc3s2)CC1 (configuration not stated) | inconclusive [activator, full curve, poor fit]
Cc1ccc2cc(C#N)c(NCCNC(=S)NCCCN3CCOCC3)nc2c1 | inconclusive [activator, partial curve, poor fit]
COc1cc(Cl)c(CNC[C@H]2O[C@@H](n3cnc4c(N)ncnc43)[C@H](O)[C@@H]2O)c(Cl)c1O | active: 7.31 µM
Cc1[nH]c2ccc(F)cc2c1CCN(Cc1cccnc1)C(=S)Nc1cccc(F)c1 | inconclusive [activator, single point]
COc1cc2c(cc1OC)C(C)N(S(=O)(=O)c1ccc(Cl)nc1)CC2 (configuration not stated) | inactive
CSc1ncc(CN2CCN(C3CCCCC3)C(CCO)C2)cn1 (configuration not stated) | inconclusive [activator, single point]
COc1ccc(CC(=O)n2nc(-c3ccc(Cl)cc3)nc2NCc2ccco2)cc1 | inconclusive [activator, single point]
N#Cc1nc(-c2cccs2)oc1N1CCOCC1 | inconclusive [activator, partial curve, poor fit]
